The results in this text go back to PubChem BioAssay AID485344 (National Center for Advancing Translational Sciences (NCATS), 2010).

About 6,900 (2%) of roughly 340,000 compounds were called active. Cut-off read from the data, not from the text of the source: active = inhibition above about 30%; inactive = below that, where a call was filed. The list shows a part of the results, in another mix than the full data. Entries without a call were filed so in the source.

Sequence of UniProt P14416 (P14416 whole entry, looked up): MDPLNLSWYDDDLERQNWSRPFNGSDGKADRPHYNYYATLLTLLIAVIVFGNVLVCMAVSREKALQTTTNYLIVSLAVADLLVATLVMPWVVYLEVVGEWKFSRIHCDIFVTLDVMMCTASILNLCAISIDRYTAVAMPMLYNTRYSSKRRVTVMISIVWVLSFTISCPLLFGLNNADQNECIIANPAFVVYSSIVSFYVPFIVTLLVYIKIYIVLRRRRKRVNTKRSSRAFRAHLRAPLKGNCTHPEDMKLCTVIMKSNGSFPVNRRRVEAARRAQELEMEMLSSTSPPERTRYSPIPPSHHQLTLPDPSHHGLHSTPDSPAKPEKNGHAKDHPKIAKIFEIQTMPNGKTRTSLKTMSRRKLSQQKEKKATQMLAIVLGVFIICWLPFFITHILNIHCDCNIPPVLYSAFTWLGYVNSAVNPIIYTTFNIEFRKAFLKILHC

For this experiment, the target named is D(2) dopamine receptor (Homo sapiens) (UniProt P14416). In words: HTS Assay for Allosteric Antagonists of the Human D2 Dopamine Receptor: Primary Screen for Antagonists. Note: 0% is about no effect. The following applies: HEK293 TREx D2 cells, calcium flux, dopamine EC80; at 10 µM; stronger effect = higher value. The essentials:
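HEK293 T-REx D2 cells, tet-induced, calcium dye no-wash. Cpd pintool add, 180 s kinetic, then EC80 DA, 180 s kinetic. Ca flux read.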
For orientation: Calcium flux is commonly read through the fluorescence of an indicator in the cells.
As a reminder, the inhibition is the relative decrease from the control value, in per cent. In the case of `S=C(c1c[nH]c2ccc(Br)cc12)N1CCOCC1`, the inhibition is active: 38.3%.

For `O=C1C(NS(=O)(=O)c2cccs2)=C(N2CCN(Cc3ccccc3)CC2)C(=O)c2ccccc21`, the inhibition is active: 39.1%. Consider `Cc1ccc(NC(=O)CN(C)S(=O)(=O)c2ccc3c(c2)n(C)c(=O)c(=O)n3C)c(C)c1`, for which the inhibition turned out to be 1.51%. `O=C(Nc1ccc(N2CCOCC2)c(Cl)c1)c1ccc2c(c1)OCCO2`: the inhibition is active: 30.5%. `COc1ccccc1CNc1ccc(-c2nc(-c3ccccn3)no2)cc1[N+](=O)[O-]`: the inhibition was found to be 7.11%.

For the molecule `COc1ccc(OC)c(NC(=O)CCNS(=O)(=O)c2cccc3nsnc23)c1`, the inhibition was -4.74%. For the molecule `O=C(Cc1ccc(NC(=O)N2CCCCc3ccccc32)cc1)NCc1ccccc1Br`, the inhibition was 2.87%. As for `Cc1cccc(CCNC(=O)C2CCC(CNS(=O)(=O)c3c(C)cc(C)cc3C)CC2)c1` (stereo unspecified), the figure is -6.87%; as for `CCCCN(CC)CCCNC(=O)CC1Nc2ccccc2NC1=O` (stereo unspecified), active: 40.5%; as for `COc1cc(Cl)c(C)cc1NC(=O)Cn1cc(S(=O)(=O)N2CCN(c3ccccc3F)CC2)c2ccccc2c1=O`, 8.16%. Regarding `Cn1nc(-c2ccccc2F)c2cc(C(=O)NCc3ccc(Cl)cc3)sc21`, the inhibition was -4.73%. As to `COc1ccc(C2=C(C(C)=O)Sc3nnc(-c4ccc(C)cc4)n3N2C(C)=O)cc1OC`, the inhibition is -23.6%.

Take `COc1ccc(NC(=O)C(=O)NCCc2sc(-c3ccc(Cl)cc3)nc2C)cc1`: the inhibition is -4.68%.

Regarding `CC1CCc2c(sc(NC(=O)Cn3nnc(-c4ccc(C(F)(F)F)cc4)n3)c2C#N)C1` (stereo unspecified), the inhibition was -5.75%.

On to `Cc1ccc(S(=O)(=O)N(Cc2ccccc2)Cc2ccco2)cc1`, for which the inhibition was active: 32.5%. Next, `COc1ccc(CC(=O)NCCc2sc(-c3ccc(Cl)cc3)nc2C)cc1OC`: -25.7%; `CC1CCN(c2cc3c(cc2F)c(=O)c(S(=O)(=O)c2cccc(Cl)c2)cn3Cc2ccccc2)CC1`: -6.84%; `COc1ccccc1CNS(=O)(=O)c1ccc(-c2cc(C(F)(F)F)on2)s1`: 15.5%. As for `COc1ccccc1C(=O)Nc1ccc(NC(=O)c2cccs2)cc1`, the inhibition was 11.3%.

In the case of `CCOc1ccc(S(=O)(=O)NCC(c2ccco2)S(=O)(=O)c2ccc(C)cc2)cc1` (stereo unspecified), the inhibition turned out to be 20.9%.

For `COc1ccc(Nc2cc(C(=O)NCCCN(C)Cc3ccccc3)c3ccccc3n2)c(OC)c1`, the inhibition was found to be 10.6%. As for `COc1ccccc1NC(=O)N1CCN(c2nnc(C)c3c(C)n(-c4ccc(Cl)cc4)nc23)CC1`, the figure is 7.68%; as for `COc1cc(-c2nc3ccccn3c2Nc2ccccc2C)ccc1O`, 26.8%; as for `CCOc1ccccc1NC(=O)COC(=O)c1cn(CC)c2nc(C)ccc2c1=O`, -6.1%.

On to `O=C(Nc1cccc(C(F)(F)F)c1)N1CCC(CN2CCCCCC2)CC1`, for which the inhibition was -0.859%. As for `CN1CCCN(C(c2ccccc2)c2ccc(Cl)cc2)CC1` (stereo unspecified), the figure is active: 81.7%; as for `CCOc1ccc(NC(=O)c2ccc3c(SCC(=O)O)c4c(nc3c2)CCC4)cc1`, -2.58%; as for `COc1ccc(OC)c(C2c3c(-c4ccc(Br)cc4)n[nH]c3C(=O)N2c2ccc(Cl)cc2)c1` (stereo unspecified), 24%. In the case of `NC(=O)C[n+]1cccc(CNC(=O)c2ccc(OC(F)F)cc2)c1`, the inhibition was active: 31.7%.

As to `CCOC(=O)c1c(Nc2cccc(C(=O)OC)c2)nnc(-c2ccccc2)c1-c1ccccc1`, the inhibition came to 28.2%.

Consider `CCOc1ccccc1-c1noc(CSc2nnc(-c3ccccc3)n2-c2cccc(C)c2)n1`, for which the inhibition was -3.66%.

As to `OCc1ccccc1OCCCN1CCC(Cc2ccccc2)CC1`, the inhibition is active: 40.5%. Take `CC(C)NC(=O)C1CCC(Cn2c(=O)c3sccc3n(CC(=O)Nc3ccccc3)c2=O)CC1` (stereo unspecified): the inhibition came to 2.98%. On to `CCOC(=O)c1c(C)n(-c2ccccc2)c2ccc(OC(=O)c3cccc(Cl)c3)cc12`, for which the inhibition was 4.97%.

As for `Cc1ccccc1C(=O)Nc1nc(-c2ccc(Br)cc2)ns1`, the inhibition came out at 11.8%.

In the case of `COc1ccc(-c2csc3nc(-c4ccccc4)oc(=O)c23)cc1OC`, the inhibition is -13.9%. Take `CCOC(=O)c1ccc(CN(Cc2ccccc2)S(=O)(=O)c2ccc(Cl)cc2)cc1`: the inhibition is -9.29%. Next, `Cc1cccc(-c2nc(CSc3nncn4c3cc3sccc34)c(C)o2)c1`: -7.4%; `CC(C)Oc1ccc(CNC(=O)C2CCN(C(=O)N3CC(C)Oc4ccccc43)CC2)cc1` (stereo unspecified): 10.6%; `CC(=O)c1cc(-c2ccccc2)n(CC(=O)NCCc2ccc(C)cc2)c1C`: -0.751%.

With `FC(F)(F)c1cc(-c2cccc(Br)c2)nc2ncnn12`, the inhibition was 4.11%.

As to `CCOC(=O)c1cnc2ccc(OCC)cc2c1N1CCN(c2ccccc2F)CC1`, the inhibition worked out at 3.58%. As for `CCOC(=O)C1CCC(CN(Cc2ccc(OC)cc2)S(=O)(=O)c2ccc(F)c(C(=O)Nc3cc(C)ccc3C)c2)CC1` (stereo unspecified), the inhibition was -13.4%. On to `Cc1nc(N2CCCC2)c2c(C(=O)Nc3ccc(Br)cc3F)c(C)oc2n1`, for which the inhibition was found to be 3.02%. Turning to `CCN(CC)CCCNC(=O)CSc1nc(-c2ccc(OC)cc2)cc(C(F)(F)F)n1`, the inhibition was 3.06%. As for `Oc1c(C(c2ccccc2Cl)N2CCN(Cc3ccccc3)CC2)sc2nc(-c3ccco3)nn12` (stereo unspecified), the inhibition was 27.9%.

Turning to `CCc1ccc(NC(=O)CSc2ccc(-c3cccs3)nn2)cc1`, the inhibition is -13.5%. Next, `Cc1noc(Cn2c(=O)c3cc4c(cc3n(CC(=O)Nc3ccccc3F)c2=O)OCO4)n1`: 4.62%. As for `Cc1ccc(Cl)cc1NC(=O)CCn1c(=O)c2cccn2c2cccnc21`, the inhibition is -4.26%. Regarding `CCOc1ccc2nc(N3CCC(C(=O)Nc4cc(C)ccc4C)CC3)sc2c1`, the inhibition was -4.79%. As to `CCOC(=O)C1(CC2CC2)CCN(Cc2cnc(N(C)C)s2)CC1`, the inhibition was active: 67.8%. In the case of `Cc1ccc(NC(=O)Cn2cc3c(n2)CCCC3)c(C)c1`, the inhibition was determined as 13.6%. Consider `O=C(NC1CCCCC1)c1ccc(CSc2nc3ccncc3n2Cc2ccccc2F)cc1`, for which the inhibition is -8.47%. Next, `COc1ccc(NC(=O)CSc2nc(-c3cccs3)cc(C(F)(F)F)n2)c(OC)c1`: -10.1%; `CC(=O)NC(CC(=O)NC(C)c1ccc(Cl)cc1Cl)c1ccccc1` (stereo unspecified): active: 34.4%. Regarding `COCCCNC(=O)c1ccc2c(c1)nc1n2CCCCC1`, the inhibition was -9.41%. For the molecule `O=C(Cn1c(=O)c2ccccc2n2nncc12)Nc1cccc(F)c1`, the inhibition was -10.8%. Take `CCc1cccc(C)c1NC(=O)CCCN1C(=O)C(c2ccccc2)Oc2cccnc21` (stereo unspecified): the inhibition was -1.06%. Regarding `CC1CCN(c2ccc(-c3nc(-c4ccccc4)no3)cc2[N+](=O)[O-])CC1`, the inhibition amounted to 24.7%. Consider `COc1ccc(NC(=O)NCCn2nnc3cc(S(=O)(=O)N(C)C)ccc32)cc1`, for which the inhibition was -3.98%. Take `CCOC(=O)c1c(C)[nH]c(C)c1S(=O)(=O)N(C)CC(=O)NCc1cccc(Br)c1`: the inhibition worked out at 0.968%.

Regarding `Cc1ccccc1Cn1cnc2nc3c(cc2c1=O)CC(C)CC3` (stereo unspecified), the inhibition is -14.2%. Next, `CCc1cccc(C)c1NC(=O)CCCn1nc(C)c2sc3ccccc3c2c1=O`: 3.35%; `Cc1cc(N2CCCCC2)nc2ccc(NC(=O)/C=C/c3ccc(OCCC(C)C)cc3)cc12`: 7.15%; `O=C(CSc1nc2ccsc2c(=O)n1-c1ccc(Br)cc1)NCc1ccccc1`: -28.6%. On to `O=C(CSc1nnc2scc(-c3ccccc3)n12)Nc1ccc(Cl)cc1`, for which the inhibition is -18.9%.

Consider `O=C(Nc1cccc(C(F)(F)F)c1)Nc1cccs1`, for which the inhibition was -3.47%. As to `Cc1ccccc1C(=O)N1CCC(N2CCN(Cc3ccc(F)cc3)C(=O)C2=O)CC1`, the inhibition is 5.6%. Next, `CCCCN(CC)C(=O)C1CCCN(c2ncnc3c2nc2n3CCCCC2)C1` (stereo unspecified): 10.1%; `CCOC(=O)c1ccc(NC(=O)c2ccc(CN3C(=O)CCn4nc(C)cc43)cc2)cc1`: 1.04%; `Cc1cccc(NC(=O)CN2C(=O)CCn3nc(-c4cccn4C)cc32)c1C`: -11%. As to `COc1ccc(NC(=O)C2CCN(S(=O)(=O)c3cc(-c4noc(C)n4)ccc3C)CC2)cc1`, the inhibition worked out at 18.9%. As for `Cc1ccc(C)c(NC(=O)c2cc(S(=O)(=O)NCCc3ccccc3)ccc2F)c1`, the figure is -2.45%; as for `C=CCNC(=S)NNC(=O)CC12CC3CC(CC(C3)C1)C2`, active: 33.6%; as for `CCOC(=O)C1CCCN(C(=O)c2ccc3c(c2)N(Cc2ccc(Cl)cc2)C(=O)c2ccccc2S3=O)C1` (stereo unspecified), -12.3%.

Regarding `Cc1noc(/C=C/c2ccccc2F)c1S(=O)(=O)N1CCC(C(=O)Nc2ccc(C#N)cc2)CC1`, the inhibition was -1.53%. For the molecule `COc1cccc(NC(=O)Nc2ccc3nc(N4CCN(C)CC4)cc(C)c3c2)c1`, the inhibition worked out at 7.96%. In the case of `CC1(C(=O)NNC(=O)c2ccc([N+](=O)[O-])cc2)CC1(Br)Br` (stereo unspecified), the inhibition is active: 37.1%.

Turning to `COC(=O)c1ccccc1NC(=O)CN1CCN(C23CC4CC(CC(C4)C2)C3)CC1`, the inhibition is active: 72.2%. `Cc1nc(N2CCOCC2)[nH]c(=O)c1C(O)C(Cl)(Cl)Cl` (stereo unspecified): the inhibition is active: 48.1%. Turning to `Cc1ccc2c(CNC3CCCC3)c(C(=O)O)n(Cc3ccc(F)cc3)c2c1`, the inhibition is 17.9%.

As to `CN(C(=O)CSc1nc2ccccc2n1CC(=O)N(C)C1CCCCC1)c1ccccc1`, the inhibition amounted to 15%. Turning to `CC1=Nc2cc(C(=O)NC3CCCCC3)ccc2Sc2ccc(Cl)cc21`, the inhibition is -10.9%. Next, `COc1ccc(NC(=O)c2coc(=O)c3ccccc23)cc1OC`: -12.1%. Turning to `CC1=C(c2ccc(C(C)C)cc2)S(=O)(=O)N=C1N1CCN(c2ccc(F)cc2)CC1`, the inhibition worked out at 27.2%.

For `O=C(CCCc1ccccc1)NC1CC(=O)N(c2ccc(Cl)cc2)C1` (stereo unspecified), the inhibition was found to be 12%. With `O=C(CCN1CCN(c2ccccc2)CC1)Nc1ccc2c(c1)OCO2`, the inhibition is active: 108%. Next, `COc1ccccc1C(=O)n1nc(-c2cccnc2)nc1NCc1ccccc1`: 1.57%. As for `Cc1ccc(OCC(=O)Nc2nnc(SCc3cc(=O)c4ccccc4[nH]3)s2)cc1C`, the inhibition turned out to be 6.7%. In the case of `Cc1ccc(Cl)cc1NC(=O)c1ccc(NC(=O)N2CCSc3ncccc32)cc1`, the inhibition worked out at 9.59%. Take `CCOc1ccc(NC(=O)CN2CCN(c3ccccc3C)CC2)cc1S(=O)(=O)N1CCCC1`: the inhibition is active: 34.7%. As for `Cc1cccc(-c2nc3c4ccccc4nc(N4CCN(c5ccc(F)cc5)CC4)n3n2)c1`, the inhibition is 3.81%. With `Cc1cccc(N2CCN(Cc3cn(C)nc3-c3ccccc3F)CC2)n1`, the inhibition is active: 30.4%.

Consider `O=C(NCc1ccccc1Cl)c1ccc2c(c1)nnn2C1CCCC1`, for which the inhibition was -27.2%. As to `O=C(NC1(C(F)(F)F)C(=O)Nc2c1c(=O)[nH]c(=O)n2CCc1ccccc1)c1ccc(Cl)cc1` (stereo unspecified), the inhibition was -19.7%. In the case of `CCCCC(=O)Nc1ccc2nc(SCC(=O)N3CCOCC3)sc2c1`, the inhibition was -16.1%.
